Laboratory results taken from PubChem BioAssay AID485294 (National Center for Advancing Translational Sciences (NCATS), 2010).
Out of some 370,000 compounds screened, about 150 (0.041%) were called active. The shares of active, inactive and inconclusive entries below differ from those in the screen. Calls follow the shape of the dose curve; as a rule, active = well fitted inhibition curve with a large enough effect; inconclusive = small, poorly fitted or top-dose-only effect; inactive = flat fitted curve, though single readings scatter. Potencies of inconclusive entries are left out as doubtful fits.

The molecules below were run against Beta-lactamase (Escherichia coli (strain K12)) (UniProt P00811) (assay: qHTS Inhibitors of AmpC Beta-Lactamase (assay with detergent)). Conditions: AmpC hydrolysis of nitrocefin, absorbance 480 nm, 0.01% Triton; activity change, negative = inhibition: at 114 µM (top of the series).
Summary of the method: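 20 mM phosphate pH 7.0 + 0.01% (detergent screen) or 0.0001% Triton X-100; 5.3 nM AmpC reagent; cpd preinc 15 min RT; nitrocefin (800 uM stock) to start; A480 q20 s × 4 min; Activity was normalised to no-enzyme and no-compound control wells.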
Also: nearly all actives have a fitted effect of over 25% in size.
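For activity change, negative = inhibition in this document: 0% = no-compound wells and -100% = no-enzyme wells.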
Potency is read from the fitted curve at half-maximal effect; tags tell the direction and shape of the fitted curve.

Chain of UniProt P00811 (P00811 whole entry, looked up): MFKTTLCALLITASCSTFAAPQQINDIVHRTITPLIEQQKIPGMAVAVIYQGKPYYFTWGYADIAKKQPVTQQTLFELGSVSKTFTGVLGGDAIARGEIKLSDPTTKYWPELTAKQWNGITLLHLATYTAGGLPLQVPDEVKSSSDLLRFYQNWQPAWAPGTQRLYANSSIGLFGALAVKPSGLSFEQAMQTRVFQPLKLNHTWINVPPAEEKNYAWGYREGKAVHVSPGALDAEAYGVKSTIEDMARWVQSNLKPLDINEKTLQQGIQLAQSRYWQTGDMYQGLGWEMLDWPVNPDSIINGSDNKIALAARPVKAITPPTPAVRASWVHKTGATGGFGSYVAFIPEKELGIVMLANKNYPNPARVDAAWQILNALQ

| Structure (SMILES) | Potency | activity change, negative = inhibition |
| --- | --- | --- |
| O=C(CN(Cc1cccs1)C(=O)CSc1nnc(COc2ccccc2)o1)NC1CCCC1 | inconclusive [inhibitor, full curve] | – |
| CCN1CCN(S(=O)(=O)c2ccc3c(c2)OCCO3)CC1 | inconclusive [inhibitor, partial curve, poor fit] | – |
| CCOC(=O)c1c(C)n(CCNC(C)=O)c2ccc(OC)cc12 | – | inactive: 2.49% |
| CC(C)(C)c1ccc(C(=O)NCC(=O)OCN2C(=O)c3ccccc3C2=O)cc1 | inconclusive [inhibitor, full curve, poor fit] | – |
| CCOc1ccc(CCNC(=O)COC(=O)CCc2cc(OC)c(OC)c(OC)c2)cc1OCC | inconclusive [inhibitor, partial curve] | – |
| Cc1ccc(S(=O)(=O)c2nc(-c3cccs3)oc2SCC(N)=O)cc1 | inconclusive [inhibitor, partial curve, poor fit] | – |
| CCOC(=O)c1sc(NC(=O)/C=C/c2c(F)cccc2Cl)nc1C | inconclusive [inhibitor, full curve, poor fit] | – |
| COCCNC(=O)CN1N=C(c2ccc(C)cc2)CCC1=O | inconclusive [inhibitor, full curve, poor fit] | – |
| COc1cc(/C=N/NC(=O)c2ccncc2)ccc1OCC(=O)Nc1cccc([N+](=O)[O-])c1 | – | inactive: -4.92% |
| Cc1c(-c2cc(Br)ccc2O)nc2cc3c(cc2c1C)OCO3 | inconclusive [inhibitor, partial curve, poor fit] | – |
| O=C(COc1ccc(Br)cc1)Nc1ccc(NC(=O)c2ccccc2)cc1 | inconclusive [inhibitor, full curve] | – |
| O=C(NC(=S)NCc1ccccc1)c1ccccc1Br | inconclusive [inhibitor, full curve, poor fit] | – |
| O=C(c1cccnc1Cl)N(Cc1ccccc1)Cc1ccccc1 | inconclusive [inhibitor, single point] | – |
| COc1ccc2nc(NC(=O)C3CSC4(C)CCC(=O)N34)sc2c1 (stereo not given) | inconclusive [inhibitor, partial curve, poor fit] | – |
| C#CCn1c(=NC(=O)c2ccccc2[N+](=O)[O-])sc2cc(S(C)(=O)=O)ccc21 | inconclusive [inhibitor, full curve, poor fit] | – |
| C/C(=N\NC(=O)c1nn(C)cc1Br)c1cccc(NC(=O)c2ccncc2)c1 | – | inactive: -11.7% |
| Cc1ccc(-c2cc(C(=O)NCCc3ccccc3)c3c(-c4ccc(C)cc4)[nH]nc3n2)cc1 | – | inactive: 2.3% |
| Cc1ccc(/C(O)=C2/C(=O)C(=O)N(c3ccccn3)C2c2ccc(F)cc2)cc1 (stereo not given) | – | inactive: -3.12% |

| Structure (SMILES) | Potency | activity change, negative = inhibition |
| --- | --- | --- |
| O=C(Nc1ccccc1)c1cc2ccccc2o1 | inconclusive [inhibitor, partial curve, poor fit] | – |
| CC(=O)N1CC(c2ccccc2)C(c2ccc(Cl)cc2)=N1 (stereo not given) | inconclusive [inhibitor, full curve] | – |
| CCn1cc(C(=O)N2CCN(c3cc(C)ccc3C)CC2)c(=O)c2cc(S(=O)(=O)N(C)C3CCCCC3)ccc21 | – | inactive: 2% |
| CC(NC(=O)N1CCOCC1)c1ccccc1 (stereo not given) | inconclusive [inhibitor, full curve, poor fit] | – |
| O=C(COC(=O)c1ccccc1C(=O)c1ccc(Cl)c([N+](=O)[O-])c1)NC1CCCCCC1 | – | inactive: -9.94% |
| c1ccc(-c2ccc(-c3nc(-c4cccnc4)no3)cc2)cc1 | inconclusive [inhibitor, full curve, poor fit] | – |
| O=c1c2ccccc2n(Cc2cccc(F)c2)c(=O)n1Cc1ccccc1Cl | inconclusive [inhibitor, single point] | – |
| COc1ccc(CNC(=O)C[C@H]2C(=O)N(CCc3ccccc3)C[C@@H]2Cc2ccccc2)cc1 | – | inactive: -8.4% |
| Cc1cc(C(=O)COc2cccnc2[N+](=O)[O-])c(C)n1Cc1ccco1 | – | inactive: 2.67% |
| CC1CC1c1ccc(/C=C(\C#N)C(=O)Nc2ccc(Cl)cc2)o1 (stereo not given) | inconclusive [inhibitor, full curve, poor fit] | – |
| C/C=C/C(=O)OCC(=O)Nc1cccc(S(=O)(=O)NC2=NCCCCC2)c1 | inconclusive [inhibitor, single point] | – |
| O=C(O)CCC(=O)N1CCc2cc(S(=O)(=O)N3CC=C(c4ccccc4)CC3)ccc21 | inconclusive [inhibitor, full curve, poor fit] | – |
| CC1CC(C)CN(CCCNC(=O)c2ccc3nc(N4CCCCC4)sc3c2)C1 (stereo not given) | inconclusive [inhibitor, full curve, poor fit] | – |
| O=S(=O)(c1ccc(NCC2CCCCC2)nc1)N1CCOCC1 | inconclusive [inhibitor, partial curve, poor fit] | – |
| CCOC(=O)C1=C(C)N=c2s/c(=C\c3cc(OC)c(OC)c(OC)c3)c(=O)n2C1/C=C/c1ccccc1 (stereo not given) | inconclusive [inhibitor, full curve, poor fit] | – |
| COc1ccccc1/C=C/C(=O)c1ccccc1 | – | inactive: -4.6% |
| O=C(O)c1ccc(-c2nnc(-c3cccc(Br)c3)o2)cc1 | – | inactive: 4.02% |
